Screen size: about 310,000 compounds; about 14,000 (4.5%) showed an effect of 50% or more. Effects have a minus sign here. The list shows a part of the results.
What follows are compounds tested against human ether-à-go-go-related gene (hERG) potassium channel (human, UniProt Q12809) (assay: primary screen, population patch clamp on CHO cells stably expressing hERG).
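Further: peak tail current of the secondary pulse compared with the same well before compound.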

Sequence of human ether-à-go-go-related gene (hERG) potassium channel (Q12809 whole entry, looked up): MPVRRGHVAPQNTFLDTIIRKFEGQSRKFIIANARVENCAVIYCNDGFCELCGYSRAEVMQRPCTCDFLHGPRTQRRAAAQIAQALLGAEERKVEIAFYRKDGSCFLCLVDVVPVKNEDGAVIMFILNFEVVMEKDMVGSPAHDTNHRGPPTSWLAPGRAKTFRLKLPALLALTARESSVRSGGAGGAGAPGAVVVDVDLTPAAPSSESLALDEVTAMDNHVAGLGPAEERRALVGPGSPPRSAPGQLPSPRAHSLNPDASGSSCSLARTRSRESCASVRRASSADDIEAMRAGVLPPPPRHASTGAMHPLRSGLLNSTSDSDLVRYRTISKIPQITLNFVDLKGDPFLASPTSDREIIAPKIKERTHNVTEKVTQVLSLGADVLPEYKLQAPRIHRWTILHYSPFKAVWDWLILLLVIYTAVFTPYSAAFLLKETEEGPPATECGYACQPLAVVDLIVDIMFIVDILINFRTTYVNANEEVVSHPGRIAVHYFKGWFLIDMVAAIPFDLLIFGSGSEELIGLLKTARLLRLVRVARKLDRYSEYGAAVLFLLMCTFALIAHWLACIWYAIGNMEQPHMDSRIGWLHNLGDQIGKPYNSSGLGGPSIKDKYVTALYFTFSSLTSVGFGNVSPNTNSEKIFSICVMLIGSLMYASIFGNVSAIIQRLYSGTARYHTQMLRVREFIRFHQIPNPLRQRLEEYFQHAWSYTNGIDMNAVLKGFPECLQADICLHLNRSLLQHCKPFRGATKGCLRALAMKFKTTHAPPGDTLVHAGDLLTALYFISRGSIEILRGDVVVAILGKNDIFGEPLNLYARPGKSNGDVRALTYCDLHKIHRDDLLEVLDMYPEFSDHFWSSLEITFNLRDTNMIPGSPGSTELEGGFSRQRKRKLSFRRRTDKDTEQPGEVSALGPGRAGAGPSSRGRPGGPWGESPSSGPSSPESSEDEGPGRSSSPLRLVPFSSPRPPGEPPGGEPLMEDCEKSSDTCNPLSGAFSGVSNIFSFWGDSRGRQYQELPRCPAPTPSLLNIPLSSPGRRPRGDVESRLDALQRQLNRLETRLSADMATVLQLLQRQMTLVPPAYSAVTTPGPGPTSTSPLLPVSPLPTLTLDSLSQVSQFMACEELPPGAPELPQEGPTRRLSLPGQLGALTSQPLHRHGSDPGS

Structure (SMILES)	hERG current change (%, negative = inhibition) at 10uM [%]
CCOc1cc(C(=O)Nc2ccc(S(=O)(=O)NC3=NCCCCC3)cc2)cc(OCC)c1OCC	23.6
Cc1ccc(C)c(-n2c(CNC(=O)c3ccco3)nnc2SCC(=O)N2CCc3ccccc32)c1	2.31
O=C(c1c[nH]c(C(=O)C(Cl)(Cl)Cl)c1)c1ccccc1Cl	17.5
COc1cccc(NC(=O)CSc2ncnc3c2oc2ccccc23)c1	4.57
Cc1oc2c(O)c(O)ccc2c(=O)c1-c1ccccc1	4.11
CC1(C)CC2CC(C)(CN2C(=O)COC(=O)CNC(=O)c2ccc(Cl)c(Cl)c2)C1 (stereo not shown)	-20.9
Cc1nc(SCC(=O)Nc2ccccn2)n[nH]1	20.7
O=C(NNc1nc(-c2ccccc2)c2cc(Br)ccc2n1)c1ccc(S(=O)(=O)N2CCCCC2)cc1	8.26
O=C(O)c1ccc(N2C(=O)c3[nH]nc(-c4ccccc4)c3C2c2ccccc2)cc1 (stereo not shown)	22.3
C=CCn1cccc(C(=O)Nc2ccc(OC)c(OC)c2)c1=O	21
CN1CCN(c2nc3nonc3nc2N2CCN(C)CC2)CC1	0.911
CC(C)(C)NC(=O)NCCc1ccccc1	11
Cc1nnc(SCc2cccs2)[nH]c1=O	-8.43
CCOC(=O)CNC(=O)CSc1ncnc2c1cnn2-c1ccc(C)cc1	2.15
O=C(/C=C/c1ccc2c(c1)OCO2)c1cccnc1	-27.8
CCOC(=O)Cc1cc(C)[nH]c1C(=O)OCC	-5.81
CCOC(=O)c1ccc(CNC(=O)Cn2nnc(-c3cccc(C)c3)n2)o1	-10.9
O=C(CN1CCC(C(O)(c2ccccc2)c2ccccc2)CC1)Nc1ccccc1	-42.1
Cc1cccc(-c2cc3nc(C)cc(NCCCn4ccnc4)n3n2)c1	-59.3
O=C(CN(Cc1ccco1)C(=O)CNS(=O)(=O)c1ccccc1)NCc1ccccc1	-20.4
COc1ccc(NC(=O)CS(=O)CC(=O)N2CCN(C3CCCC3)CC2)cc1 (stereo not shown)	27.2
CCc1ccccc1NC(=S)N(CCOC)C(C)c1ccco1 (stereo not shown)	-25.1
CC(=O)OC1(c2ccccc2)CC(C(C)(C)C)CN(C(C)(C)C)C1.Cl (stereo not shown)	6.9
CC(=O)Nc1c(O)c2ccccc2[nH]c1=O	4.92
CCOc1ccc(-n2nc(C(=O)N3CCN(CC)CC3)c3ccccc3c2=O)cc1	-14.5

From paper PMC4336329 (PLoS ONE, 2015)
